# Article PMC4336329 (PLoS ONE, 2015)
# In all, about 310,000 compounds went through this assay and about 14,000 (4.5%) showed an effect of 50% or more. Effects have a minus sign here. Some of the results follow.
# Biological target: human ether-à-go-go-related gene (hERG) potassium channel (human, UniProt Q12809)
# Assay: primary screen, population patch clamp on CHO cells stably expressing hERG
# 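Note: peak tail current of the secondary pulse compared with the same well before compound.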
# Sequence of human ether-à-go-go-related gene (hERG) potassium channel (Q12809 whole entry, looked up): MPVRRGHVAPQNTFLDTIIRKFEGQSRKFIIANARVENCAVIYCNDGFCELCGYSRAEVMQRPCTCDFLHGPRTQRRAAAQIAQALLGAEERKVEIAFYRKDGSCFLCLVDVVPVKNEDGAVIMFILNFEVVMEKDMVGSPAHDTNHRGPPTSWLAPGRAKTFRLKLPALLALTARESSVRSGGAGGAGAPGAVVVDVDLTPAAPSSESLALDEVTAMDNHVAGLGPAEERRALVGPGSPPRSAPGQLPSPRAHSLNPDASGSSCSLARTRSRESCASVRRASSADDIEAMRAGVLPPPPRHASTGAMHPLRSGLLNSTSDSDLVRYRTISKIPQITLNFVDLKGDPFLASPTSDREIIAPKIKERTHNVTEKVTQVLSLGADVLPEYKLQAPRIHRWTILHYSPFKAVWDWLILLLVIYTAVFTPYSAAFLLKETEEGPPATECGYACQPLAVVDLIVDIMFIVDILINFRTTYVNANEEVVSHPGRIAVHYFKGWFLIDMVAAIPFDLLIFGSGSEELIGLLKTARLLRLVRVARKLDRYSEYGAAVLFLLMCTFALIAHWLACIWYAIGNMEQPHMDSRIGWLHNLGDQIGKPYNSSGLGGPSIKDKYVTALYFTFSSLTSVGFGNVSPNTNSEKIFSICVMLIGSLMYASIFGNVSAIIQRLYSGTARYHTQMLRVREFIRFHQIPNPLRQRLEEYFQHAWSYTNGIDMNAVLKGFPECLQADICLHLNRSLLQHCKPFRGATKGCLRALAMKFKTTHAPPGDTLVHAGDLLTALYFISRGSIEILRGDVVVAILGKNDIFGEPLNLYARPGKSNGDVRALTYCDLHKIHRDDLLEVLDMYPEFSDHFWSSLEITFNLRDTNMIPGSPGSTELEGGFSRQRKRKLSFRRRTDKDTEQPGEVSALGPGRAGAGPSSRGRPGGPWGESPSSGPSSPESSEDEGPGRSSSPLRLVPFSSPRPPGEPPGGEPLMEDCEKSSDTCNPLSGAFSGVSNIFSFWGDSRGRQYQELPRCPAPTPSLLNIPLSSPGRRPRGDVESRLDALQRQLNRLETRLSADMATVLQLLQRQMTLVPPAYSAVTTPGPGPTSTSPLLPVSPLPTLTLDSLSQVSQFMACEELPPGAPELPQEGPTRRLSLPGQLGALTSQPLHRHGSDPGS
row,Compound,"hERG current change (%, negative = inhibition) at 10uM [%]"
1,CC(CC(=O)Nc1nccs1)c1ccccc1 (centres unmarked),15
2,Cc1cccc(NC(=O)C2CCN(S(=O)(=O)c3cccc4nsnc34)CC2)n1,-2.82
3,Cc1cc(C(=O)OCC(=O)Nc2cc(S(=O)(=O)N(C)C)ccc2Cl)c2ccccc2n1,-2.06
4,CC1CCCCN1C(=S)NC(=O)c1cc(Br)ccc1Cl (centres unmarked),4.09
5,CCOC(=O)/C(=N\Nc1ccccc1)N1CC1,34.3
6,CCCCCN(C(=O)CCC(=O)OCC(=O)N1C(C)CCCC1C)c1c(N)n(CCCC)c(=O)[nH]c1=O (centres unmarked),12.9
7,CC(=O)c1ccc(N=Nc2c(C)[nH]n(-c3ccccc3)c2=O)cc1,8.59
8,c1ccc(CSc2nnc(-c3ccncc3)o2)cc1,-21.6
9,O=C(Nc1sc2c(c1C(=O)c1ccc(Cl)cc1)CCCC2)c1cccnc1,6.14
10,CCOC(=O)C1(Cc2cccc(Cl)c2)CCCN(CCO)C1 (centres unmarked),2.16
11,CN(C(=O)c1ccc(NC(=O)Cc2ccc(NC(=O)C3CCCN(C(=O)C4CCC4)C3)cc2)cc1)C1CC1 (centres unmarked),7.5
12,CC1=CS(=O)(=O)CC1SC1=NC(C)=N[NH2+]1.[Br-] (centres unmarked),12.3
13,CC1CCCN(S(=O)(=O)c2ccc(S(=O)(=O)NC(C)c3cccs3)cc2)C1 (centres unmarked),-14
14,O=C(COc1ccc(S(=O)(=O)N2CCCCC2)cc1)NCc1ccncc1,-26
15,COc1ccc(-n2c(CNc3ccc(C)cc3)nnc2SCC(=O)Nc2nc(-c3ccccc3)cs2)cc1,-23.1
16,Cc1ccc(/C=N/N=C2/NC(=O)CS2)o1,24.6
17,CCOC(=O)C1CCN(C(=S)Nc2cccc(C)c2C)CC1,-7
18,O=[N+]([O-])c1ccc(Cl)cc1Sc1nc2ccccc2o1,-1.77
19,Cc1cc(Cl)ccc1OCC(=O)NCC(c1cccs1)N1CCOCC1 (centres unmarked),-4.97
20,CN1CCN(c2ccc(NC(=O)c3cc4ccccc4o3)cc2)CC1,-72.3
21,O=C(NCc1cccs1)C1CCCN1C(=O)Nc1ccccc1[N+](=O)[O-] (centres unmarked),-21.3
22,Cc1ccc(NC2=CC(=O)CC(C)(C)C2)cc1F,6.87

row,Compound,"hERG current change (%, negative = inhibition) at 10uM [%]"
1,O=C(O)CN1C(=O)SC(Nc2ccc(C(=O)O)cc2)C1=O (centres unmarked),4.35
2,Cn1c(CC(=O)Nc2ccc(Cl)c(Cl)c2)nnc1SCC(=O)N1CCN(c2ccccc2)CC1,-33
3,CCN(CC(=O)Nc1c(F)cccc1F)C(=O)c1ccc(C(=O)c2ccccc2)cc1,-18.1
4,COCCN(C(=O)COC(=O)/C=C/c1ccc(C(F)(F)F)cc1)c1c(N)n(Cc2ccccc2)c(=O)[nH]c1=O,-11.4
5,Oc1ccc(Cl)cc1C=Nc1ccccc1Br,11.8
6,CCOc1ccccc1NC(=O)N1CCCC(c2nc3c(nnn3Cc3ccc(C)cc3)c(=O)[nH]2)C1 (centres unmarked),-22.7
7,CC1CC(C)CN(C(=O)COC(=O)Cc2c[nH]c3ccccc23)C1 (centres unmarked),6.66
8,CS(=O)(=O)N(CC(N)=O)c1ccc2c(c1)OCO2,15.7
9,O=C(Cc1cccs1)N(Cc1cccs1)C1(C(=O)NC2CCCC2)CCCCC1,0.498
10,COc1ccc(/C=N/Nc2cc(=O)n(C)c(=O)n2C)cc1OC,17
11,Cc1csc(=Nc2c(C)n(C)n(-c3ccccc3)c2=O)n1-c1ccccc1,18.1
12,O=C(CN1CCN(C(=O)c2ccccc2)CC1)Nc1ccccc1,-20.1
13,O=C(c1cccs1)N(Cc1ccc(Cl)cc1)C1CCS(=O)(=O)C1 (centres unmarked),-41.9
14,CC(=O)NC(CC(=O)N(C)Cc1cccc(Cl)c1Cl)c1ccccc1 (centres unmarked),-16.8
15,COc1ccc(N2CCN(C(=O)C3CCCN(S(=O)(=O)c4ccc(F)cc4)C3)CC2)cc1 (centres unmarked),-39.2
16,O=C(CCC(=O)N1CCN(S(=O)(=O)c2ccc(Cl)cc2)CC1)NC1CCCc2ccccc21 (centres unmarked),-52.6
17,Cc1ccc(C)c(Nc2nc3c(S(=O)(=O)c4ccccc4)nnn3c3ccccc23)c1,-3.68
18,C/C=N\NC(=O)COc1cc(C)ccc1C,14.4
19,Cc1ccc(/C=N/NC(=O)C2(O)c3ccccc3-c3ccccc32)o1,-0.955
20,Cn1c(=O)c([N+](=O)[O-])c(NCC2CCCO2)c2ccccc21 (centres unmarked),0.511
21,O=S(=O)(Nc1ccccc1)c1ccc(S(=O)(=O)N2CCCC2)cc1,-26.7
22,CCc1ccc(/C=C2/SC(=S)N(CCC(=O)Nc3ccc(C(=O)O)cc3)C2=O)cc1,12.5
